Laboratory results from paper PMC2844429.
No constants are given. Whether binding was seen depends on the method and setting. For some assays here: In cells and extracts the contact can be indirect. Some results given as binding are weak or reduced against the parent protein; the word gives no strength.

T1: Ozz (Neuralized-like protein 2), full length, two-hybrid bait (UniProt Q9D0S4)
T1 sequence: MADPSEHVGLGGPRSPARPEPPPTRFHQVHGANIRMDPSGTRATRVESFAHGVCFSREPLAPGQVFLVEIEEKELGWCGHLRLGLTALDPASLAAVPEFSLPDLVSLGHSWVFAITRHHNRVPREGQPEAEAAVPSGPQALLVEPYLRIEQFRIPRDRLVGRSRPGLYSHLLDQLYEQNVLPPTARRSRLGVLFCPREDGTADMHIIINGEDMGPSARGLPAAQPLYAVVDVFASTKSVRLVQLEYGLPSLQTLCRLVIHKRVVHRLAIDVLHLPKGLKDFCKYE


How the values were obtained:
[1] = biological target: T1, Ozz (Neuralized-like protein 2), full length, two-hybrid bait; assay: two-hybrid; full length Ozz as bait, MyHCemb constructs as preys in pEXP-AD502 (GAL4 activation domain), co-transformed into yeast strain Mav203; reporters HIS3 and LacZ
[2] = biological target: embryonic myosin heavy chain (MyHCemb/Myh3), endogenous (mouse (endogenous in primary myoblasts and embryonic muscle)) (UniProt P13541); assay: SEC; sarcomeric (P) fraction of E14.5, E16.5, E18.5 embryonic muscle on Superose 6; fractions immunoblotted with anti-MyHCemb, anti-Ozz, anti-MLC; buffer 20 mM Tris-HCl pH 8.0, 200 mM NaCl, 5 mM MgCl2, 5 mM DTT
[3] = biological target: embryonic myosin heavy chain (MyHCemb/Myh3), endogenous (mouse (endogenous in primary myoblasts and embryonic muscle)) (UniProt P13541); assay: SEC; soluble cytoplasmic (S) fraction of embryonic muscle on Superose 6; fractions immunoblotted; data not shown
[4] = biological target: embryonic myosin heavy chain (MyHCemb/Myh3), endogenous (mouse (endogenous in primary myoblasts and embryonic muscle)) (UniProt P13541); assay: co-IP; crude lysates of primary myoblast cultures (day 0, 2, 4); IP with anti-MyHCemb (2B6) or anti-Ozz, isotype IgG as control; lysis buffer 50 mM HEPES pH 7.5, 150 mM NaCl, 1% Igepal CA-630, 0.5% deoxycholate, 0.1% SDS; blot with anti-Ozz and anti-MyHCemb
[5] = biological target: embryonic myosin heavy chain (MyHCemb/Myh3), endogenous (mouse (endogenous in primary myoblasts and embryonic muscle)) (UniProt P13541); assay: co-purification with thin-thick filaments; classical preparation of muscle thin-thick filaments from E16.5 embryos (procedure of Trinick et al.), Western blot
[6] = biological target: embryonic myosin heavy chain (MyHCemb/Myh3), endogenous (mouse (endogenous in primary myoblasts and embryonic muscle)) (UniProt P13541); assay: co-IP; sarcomeric insoluble (P) fraction of E16.5 embryonic muscle; IP with anti-MyHCemb or anti-Elo C on Protein G Dynabeads; blots with anti-MyHCemb, anti-Ozz, anti-MLC
[7] = biological target: embryonic myosin heavy chain (MyHCemb/Myh3), endogenous (mouse (endogenous in primary myoblasts and embryonic muscle)) (UniProt P13541); assay: SEC; sarcomeric (P) fraction of E14.5, E16.5, E18.5 embryonic muscle on Superose 6; fractions immunoblotted with anti-MyHCemb, anti-Ozz, anti-MLC; buffer 20 mM Tris-HCl pH 8.0, 200 mM NaCl, 5 mM MgCl2, 5 mM DTT; remark: listed apart in the source

| binding [1] | Molecule | other results |
| --- | --- | --- |
| binds weakly | MyHCemb (1042-1535 aa), two-hybrid prey (from UniProt P13541 1042-1535) (domain or fragment) |  |
| no binding | MyHCemb (1536-1871 aa), two-hybrid prey (from UniProt P13541 1536-1871) (domain or fragment) |  |
| binds | MyHCemb (1536-1941 aa), two-hybrid prey (from UniProt P13541 1536-1940) (domain or fragment) |  |
| no binding | MyHCemb (1738-1941 aa), two-hybrid prey (from UniProt P13541 1738-1940) (domain or fragment) |  |
| no binding | MyHCemb full length head/neck domain (residues 1-1040), two-hybrid prey (from UniProt P13541 1-1040) (domain or fragment) |  |
| binds | MyHCemb full length tail domain (residues 1040-1941), two-hybrid prey (from UniProt P13541 1040-1940) (domain or fragment) |  |
|  | embryonic myosin heavy chain (MyHCemb/Myh3), endogenous (from UniProt P13541 1-1940) | binding [2]: binds; binding [3]: binds |
| no binding | MyHCemb (1872-1941 aa), two-hybrid prey (domain or fragment, UniProt P13541 1872-1940) LQVKVKSYKRQAEEADEQANAHLTKFRKAQHELEEAEERADIAESQVNKLRAKTRDFTSSRMVVHESEE |  |
|  | Ozz, endogenous (protein, UniProt Q9D0S4 1-285) MADPSEHVGLGGPRSPARPEPPPTRFHQVHGANIRMDPSGTRATRVESFAHGVCFSREPLAPGQVFLVEIEEKELGWCGHLRLGLTALDPASLAAVPEFSLPDLVSLGHSWVFAITRHHNRVPREGQPEAEAAVPSGPQALLVEPYLRIEQFRIPRDRLVGRSRPGLYSHLLDQLYEQNVLPPTARRSRLGVLFCPREDGTADMHIIINGEDMGPSARGLPAAQPLYAVVDVFASTKSVRLVQLEYGLPSLQTLCRLVIHKRVVHRLAIDVLHLPKGLKDFCKYE | binding [4]: binds; binding [5]: binds; binding [6]: binds; binding [7]: binds |
| no binding | QHELEEAEERADIAESQVNKLRAKTRDFTSSRMVVHESEE (domain or fragment, UniProt P13541 1901-1940) [MyHCemb (1901-1941 aa), two-hybrid prey] |  |
